# This is one part of the list.
# Tests used:
# Assay in all cases: glycan array binding signal (z-score within array); higher = stronger binding
# Settings in all cases: glycan notation: IUPAC condensed, linker removed
# [1] = target: Fuc(a1-2)Gal(b1-4)GlcNAc(b1-2)[Fuc(a1-2)Gal(b1-4)GlcNAc(b1-4)]Man(a1-3)[Fuc(a1-2)Gal(b1-4)GlcNAc(b1-2)Man(a1-6)]Man(b1-4)GlcNAc(b1-4)GlcNAc
# Outline: (§1)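 The binding signal is a Z-score computed within each array. Data were drawn from 3228 arrays in the Consortium for Functional Glycomics database, restricted to those with a known protein sequence. Scores were averaged over arrays of the same protein sequence at different concentrations or buffers, and over linkers, and negative values can be taken as non-binding.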
# [2] = target: Fuc(a1-2)Gal(b1-4)GlcNAc(b1-3)Gal(b1-4)GlcNAc
# Outline: as §1
# [3] = target: Fuc(a1-2)Gal(b1-4)GlcNAc(b1-3)Gal(b1-4)GlcNAc(b1-2)Man(a1-3)[Fuc(a1-2)Gal(b1-4)GlcNAc(b1-3)Gal(b1-4)GlcNAc(b1-2)Man(a1-6)]Man(b1-4)GlcNAc(b1-4)GlcNAc
# Outline: as §1
# [4] = target: Fuc(a1-2)Gal(b1-4)GlcNAc(b1-3)Gal(b1-4)GlcNAc(b1-3)Gal(b1-4)GlcNAc
# Outline: as §1
# [5] = target: Fuc(a1-2)Gal(b1-4)GlcNAc(b1-3)GalNAc
# Outline: as §1
# [6] = target: Fuc(a1-2)Gal(b1-4)GlcNAc(b1-3)[Fuc(a1-2)Gal(b1-4)GlcNAc(b1-6)]GalNAc
# Outline: as §1
# [7] = target: Fuc(a1-2)Gal(b1-4)GlcNAc(b1-3)[Fuc(a1-3)[Gal(b1-4)]GlcNAc(b1-6)]Gal(b1-4)Glc
# Outline: as §1
# [8] = target: Fuc(a1-2)Gal(b1-4)GlcNAc(b1-6)GalNAc
# Outline: as §1
# [9] = target: Fuc(a1-2)Gal(b1-4)GlcNAc6S
# Outline: as §1
# [10] = target: Fuc(a1-2)Gal(b1-4)[Fuc(a1-3)]GlcNAc
# Outline: as §1
# [11] = target: Fuc(a1-2)Gal(b1-4)[Fuc(a1-3)]GlcNAc(b1-2)Man(a1-3)[Fuc(a1-2)Gal(b1-4)[Fuc(a1-3)]GlcNAc(b1-2)Man(a1-6)]Man(b1-4)GlcNAc(b1-4)GlcNAc
# Outline: as §1
# [12] = target: Fuc(a1-2)Gal(b1-4)[Fuc(a1-3)]GlcNAc(b1-2)Man(a1-3)[Fuc(a1-2)Gal(b1-4)[Fuc(a1-3)]GlcNAc(b1-2)Man(a1-6)]Man(b1-4)GlcNAc(b1-4)[Fuc(a1-6)]GlcNAc
# Outline: as §1
# [13] = target: Fuc(a1-2)Gal(b1-4)[Fuc(a1-3)]GlcNAc(b1-2)[Fuc(a1-2)Gal(b1-4)[Fuc(a1-3)]GlcNAc(b1-4)]Man(a1-3)[Fuc(a1-2)Gal(b1-4)[Fuc(a1-3)]GlcNAc(b1-2)Man(a1-6)]Man(b1-4)GlcNAc(b1-4)GlcNAc
# Outline: as §1
# [14] = target: Fuc(a1-2)Gal(b1-4)[Fuc(a1-3)]GlcNAc(b1-3)Gal(b1-4)[Fuc(a1-3)]GlcNAc
# Outline: as §1
# [15] = target: Fuc(a1-2)Gal(b1-4)[Fuc(a1-3)]GlcNAc(b1-3)Gal(b1-4)[Fuc(a1-3)]GlcNAc(b1-3)Gal(b1-4)[Fuc(a1-3)]GlcNAc
# Outline: as §1
# [16] = target: Fuc(a1-2)Gal(b1-4)[Fuc(a1-3)]GlcNAc(b1-3)GalNAc
# Outline: as §1
# [17] = target: Fuc(a1-2)Gal(b1-4)[Fuc(a1-3)]GlcNAc(b1-3)[Neu5Ac(a2-6)Gal(b1-4)GlcNAc(b1-6)]Gal(b1-4)Glc
# Outline: as §1
# [18] = target: Fuc(a1-2)Gal3S(b1-4)GlcNAc
# Outline: as §1
# [19] = target: Fuc(a1-2)Gal6S(b1-3)GlcNAc
# Outline: as §1
# [20] = target: Fuc(a1-2)Gal6S(b1-3)GlcNAc6S
# Outline: as §1
# Fuc(a1-2)Gal6S(b1-4)Glc = target: Fuc(a1-2)Gal6S(b1-4)Glc
# Outline: as §1
# [21] = target: Fuc(a1-2)Gal6S(b1-4)Glc6S
# Outline: as §1
# [22] = target: Fuc(a1-2)Gal6S(b1-4)GlcNAc
# Outline: as §1
# Fuc(a1-2)[Gal(a1-3)]Gal = target: Fuc(a1-2)[Gal(a1-3)]Gal
# Outline: as §1
# [23] = target: Fuc(a1-2)[Gal(a1-3)]Gal(b1-3)GalNAc
# Outline: as §1
# [24] = target: Fuc(a1-2)[Gal(a1-3)]Gal(b1-3)GalNAc(b1-3)Gal(a1-4)Gal(b1-4)Glc
# Outline: as §1
# [25] = target: Fuc(a1-2)[Gal(a1-3)]Gal(b1-3)GlcNAc
# Outline: as §1
# [26] = target: Fuc(a1-2)[Gal(a1-3)]Gal(b1-3)GlcNAc(b1-2)Man(a1-3)[Fuc(a1-2)[Gal(a1-3)]Gal(b1-3)GlcNAc(b1-2)Man(a1-6)]Man(b1-4)GlcNAc(b1-4)GlcNAc
# Outline: as §1
# [27] = target: Fuc(a1-2)[Gal(a1-3)]Gal(b1-3)GlcNAc(b1-2)Man(a1-3)[Fuc(a1-2)[Gal(a1-3)]Gal(b1-3)GlcNAc(b1-2)Man(a1-6)]Man(b1-4)GlcNAc(b1-4)[Fuc(a1-6)]GlcNAc
# Outline: as §1
# [28] = target: Fuc(a1-2)[Gal(a1-3)]Gal(b1-3)GlcNAc(b1-3)GalNAc
# Outline: as §1
binder,measurement,setting,value
"LSECtin (Homo sapiens), Q6UXB4 (protein) MDTTRYSKWGGSSEEVPGGPWGRWVHWSRRPLFLALAVLVTTVLWAVILSILLSKASTERAALLDGHDLLRTNASKQTAALGALKEEVGDCHSCCSGTQAQLQTTRAELGEAQAKLMEQESALRELRERVTQGLAEAGRGREDVRTELFRALEAVRLQNNSCEPCPTSWLSFEGSCYFFSVPKTTWAAAQDHCADASAHLVIVGGLDEQGFLTRNTRGRGYWLGLRAVRHLGKVQGYQWVDGVSLSFSHWNQGEPNDAWGRENCVMMLHTGLWNDAPCDSEKDGWICEKRHNC",glycan array binding signal (z-score),[1],-0.125
same,glycan array binding signal (z-score),[2],0.027
same,glycan array binding signal (z-score),[3],-0.113
same,glycan array binding signal (z-score),[4],-0.142
same,glycan array binding signal (z-score),[5],-0.139
same,glycan array binding signal (z-score),[6],-0.133
same,glycan array binding signal (z-score),[7],-0.135
same,glycan array binding signal (z-score),[8],-0.131
same,glycan array binding signal (z-score),[9],-0.204
same,glycan array binding signal (z-score),[10],-0.004
same,glycan array binding signal (z-score),[11],0.032
same,glycan array binding signal (z-score),[12],-0.119
same,glycan array binding signal (z-score),[13],-0.134
same,glycan array binding signal (z-score),[14],-0.184
same,glycan array binding signal (z-score),[15],-0.171
same,glycan array binding signal (z-score),[16],-0.135
same,glycan array binding signal (z-score),[17],-0.138
same,glycan array binding signal (z-score),[18],-0.137
same,glycan array binding signal (z-score),[19],-0.129
same,glycan array binding signal (z-score),[20],-0.132
same,glycan array binding signal (z-score),Fuc(a1-2)Gal6S(b1-4)Glc,0.371
same,glycan array binding signal (z-score),[21],-0.131
same,glycan array binding signal (z-score),[22],-0.097
same,glycan array binding signal (z-score),Fuc(a1-2)[Gal(a1-3)]Gal,-0.185
same,glycan array binding signal (z-score),[23],-0.131
same,glycan array binding signal (z-score),[24],-0.134
same,glycan array binding signal (z-score),[25],-0.157
same,glycan array binding signal (z-score),[26],0.449
same,glycan array binding signal (z-score),[27],-0.131
same,glycan array binding signal (z-score),[28],-0.129
